# According to PubChem BioAssay AID588342 (National Center for Advancing Translational Sciences (NCATS), 2011):
# Among all 360,000 compounds or so, about 25,000 (6.9%) were called active. This list was built around the results that the source calls inconclusive (neither active nor inactive); the mix of calls is not that of the screen. Calls come from the whole dose curve; as a rule, active = well fitted inhibition curve with a large enough effect; inconclusive = small, poorly fitted or top-dose-only effect; inactive = flat fitted curve, though single readings scatter. A potency beside an inconclusive call is a rough fit, not a confirmed value.
# Target: Luciferin 4-monooxygenase (Photinus pyralis) (UniProt P08659)
# Test: qHTS profiling assay for firefly luciferase inhibitor/activator using purifed enzyme and Km concentrations of substrates (counterscreen for miR-21 project); note: nearly all actives have a fitted effect of over 55% in size;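 for activity change, negative = inhibition: plate controls were vehicle for no effect and reference inhibitor for full effect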
# Settings: purified FLuc, luminescence inhibition; activity change, negative = inhibition: at 57.5 µM (top of the series)
# Procedure, shortened: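 Biochemical qHTS of compounds, final roughly 60 µM downward over six points, against 10 nM purified firefly luciferase using Km concentrations of substrates (10 uM D-luciferin, 10 uM ATP) in Tris acetate pH 7.5 buffer; luminescence output.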
# Potency is the fitted concentration of half-maximal effect; tags give direction and shape of the fitted curve.
# Sequence of UniProt P08659 (P08659 whole entry, looked up): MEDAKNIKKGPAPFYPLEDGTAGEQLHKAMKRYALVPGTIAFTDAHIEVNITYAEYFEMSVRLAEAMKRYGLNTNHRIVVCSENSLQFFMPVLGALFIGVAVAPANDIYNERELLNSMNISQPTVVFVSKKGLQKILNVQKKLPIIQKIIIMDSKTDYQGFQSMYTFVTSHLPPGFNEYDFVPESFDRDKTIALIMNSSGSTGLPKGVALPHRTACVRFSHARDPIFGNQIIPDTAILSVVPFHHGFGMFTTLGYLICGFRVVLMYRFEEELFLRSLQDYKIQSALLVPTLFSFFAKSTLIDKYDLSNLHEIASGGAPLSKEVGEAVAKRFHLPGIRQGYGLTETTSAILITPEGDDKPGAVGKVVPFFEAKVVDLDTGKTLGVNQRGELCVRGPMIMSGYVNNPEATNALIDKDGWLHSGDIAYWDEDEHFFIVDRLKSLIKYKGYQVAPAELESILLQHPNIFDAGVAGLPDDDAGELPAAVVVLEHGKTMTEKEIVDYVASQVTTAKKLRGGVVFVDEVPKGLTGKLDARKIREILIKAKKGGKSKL
SMILES,Potency,"activity change, negative = inhibition"
CSCCC(NC(=O)c1ccc(Cl)cc1)C(=O)OCC(=O)N1CCCC1=O (configuration not stated),"inconclusive: 30.1 µM [inhibitor, partial curve, poor fit]",
CCc1ccc(NC(=S)Nn2cnnc2)cc1,"inconclusive: 30.1 µM [inhibitor, partial curve, poor fit]",
COc1ccc2cc3cc(C(=O)NCc4ccco4)oc3nc2c1,"inconclusive: 21.3 µM [inhibitor, partial curve, poor fit]",
Cc1cc(C)c2[nH]c(O)c(N=NC(=O)c3cc4c(s3)CCCC4)c2c1,,inactive: -9.78%
CCC/C(O)=C1\C(=O)CC(C)(C)CC1=Nc1cccc([N+](=O)[O-])c1,,inactive: 1.42%
CC(C)c1ccc2occ(-c3nn[nH]n3)c(=O)c2c1,"inconclusive: 33.8 µM [inhibitor, partial curve, poor fit]",
N#Cc1cccn1-c1nccc(-c2cccs2)n1,"inconclusive: 23.9 µM [inhibitor, single point]",
CCCCOC(=O)c1ccc(NC(=O)Nc2ccc(OC)c(OC)c2)cc1,"inconclusive: 30.1 µM [inhibitor, partial curve, poor fit]",
Cc1ccc(C(C)C)cc1S(=O)(=O)Nc1cccnc1,,inactive: -3.15%
COC(=O)c1c(NC(=O)c2cc(=O)c3cc(C)cc(C)c3o2)sc2c1CCC2,,inactive: -2.02%
Cc1nn(C)cc1C(=O)Nc1cc(Oc2ccc(Cl)cc2)cc([N+](=O)[O-])c1,,inactive: 0.497%
COc1ccc(CC(=O)Nc2ccc(-c3cn4ccccc4n3)cc2)cc1OC,active: 16.9 µM,
CCOC(=O)Cc1csc(NC(=O)COc2ccc(C)cc2)n1,active: 13.5 µM,
O=C(NCCc1ccccc1Cl)c1cc2ccccn2n1,active: 12 µM,
CCOc1ccc(/C=N/NC(=O)C(O)c2ccccc2)c(O)c1 (configuration not stated),"inconclusive: 21.3 µM [inhibitor, partial curve, poor fit]",
CCOC(=O)c1cnn(-c2nc(-c3ccccc3F)cs2)c1C(F)(F)F,,inactive: -11.1%
CN1C(=O)/C(=C/c2ccccc2F)Sc2ccc(C(=O)N3CCCC3)cc21,"inconclusive: 37.9 µM [inhibitor, partial curve, poor fit]",
c1coc(-c2nnc(-c3cccs3)o2)c1,"inconclusive: 19 µM [inhibitor, partial curve]",
CCN(CC)c1ccc(NC(=O)C2CCN(S(=O)(=O)c3c(C)noc3/C=C/c3ccccc3F)CC2)c(C)c1,,inactive: -8.38%
O=C1COc2ccc(-c3csc(NCC4CCCO4)n3)cc2N1 (configuration not stated),active: 16.9 µM,
Cc1nonc1C(=O)N/N=C/c1cc2c(cc1Br)OCO2,"inconclusive: 19 µM [inhibitor, single point]",
CCn1c(CNC(=O)c2ccc(OC)cc2)nnc1SCC(=O)Nc1cccc(C)c1,,inactive: -11.9%
CNC(=O)c1cc2c(-c3ccccc3)nn(C)c2s1,,inactive: 5.39%
Nc1nnc(-c2ccc(Cl)cc2)s1,"inconclusive: 19 µM [inhibitor, partial curve]",

SMILES,Potency,"activity change, negative = inhibition"
COc1cccc(C(=O)Nc2nnc(C(C)C)s2)c1,active: 3.38 µM,
CN(C)c1ccc(C(=S)N2CCCCC2)cc1,"inconclusive: 21.3 µM [inhibitor, partial curve, poor fit]",
CC(C)C(O)(C#CCN1CCCCCC1)c1ccccc1 (configuration not stated),"inconclusive: 16.9 µM [inhibitor, partial curve]",
O=C(Nc1cccc(C(F)(F)F)c1)c1cccc(NS(=O)(=O)c2ccc(Br)c(C(=O)O)c2)c1,"inconclusive: 16.9 µM [inhibitor, partial curve]",
CCOc1ccccc1Nc1nnc(SCC(=O)NC(Cc2c[nH]c3ccccc23)C(=O)O)s1 (configuration not stated),"inconclusive: 37.9 µM [inhibitor, single point]",
COc1ccccc1Nc1nc(-c2sc(NC(=O)c3ccccc3)nc2C)cs1,active: 21.3 µM,
CC(C)c1ccc(NC(=S)Nc2ccc3cn[nH]c3c2)cc1,"inconclusive: 37.9 µM [inhibitor, partial curve, poor fit]",
COc1cccc(CN2CCN(C(=O)c3cc(-c4cccnc4)nc4ccc(C)cc34)CC2)c1,"inconclusive: 30.1 µM [inhibitor, partial curve, poor fit]",
CC1(C)NC(=O)N(CC(O)CN(c2ccccc2)S(=O)(=O)c2ccccc2[N+](=O)[O-])C1=O (configuration not stated),,inactive: 6.01%
CCOc1ccc(CNC(=O)c2cccc(NC(=O)C3=C(C)OCCS3)c2)cc1,"inconclusive: 30.1 µM [inhibitor, single point]",
COc1ccc(/C=N/NC(=O)CCSc2nc3ccccc3s2)cc1OC,active: 21.3 µM,
O=C(Nc1cccc(-c2ccc(N3CCOCC3)nn2)c1)c1ccccc1,active: 2.69 µM,
Cc1ccc(C)c(-c2nnc(NC(=O)c3ccco3)o2)c1,active: 15.1 µM,
COc1ccc(NC(=O)CSCc2cc(=O)c3cc(Cl)ccc3[nH]2)cc1,,inactive: -7.58%
CCOc1ccc(-c2n[nH]c(C(=O)NN)c2C)cc1,"inconclusive: 26.9 µM [inhibitor, partial curve, poor fit]",
Cc1ccc(C)c(N2N=C(C(=O)Nc3ccc(S(=O)(=O)N4CCCC4)cc3)CCC2=O)c1,"inconclusive: 33.8 µM [inhibitor, single point]",
O=C(Nc1ccc2c(c1)OCCO2)c1cc2sccc2n1Cc1ccccc1,active: 21.3 µM,
Clc1ccc2[nH]c3c(NCCCN4CCOCC4)ncnc3c2c1,"inconclusive: 26.9 µM [inhibitor, partial curve, poor fit]",
CCN1C(=O)/C(=C2/C=Cc3cc(C)ccc3N2CC)N(C)C1=S,"inconclusive: 23.9 µM [inhibitor, single point]",
CCCC1(C)NC(=O)c2ccccc2O1 (configuration not stated),,inactive: -0.816%
O=C(CSc1nnc(-c2cccs2)o1)c1cccs1,active: 9.53 µM,
COc1cc(N=Nc2cccc(S(N)(=O)=O)c2)c2ccccc2c1N,active: 19 µM,
C/C(=C\C(=O)c1ccccc1)Nc1ccc(N2CCOCC2)cc1,"inconclusive: 7.57 µM [inhibitor, partial curve]",
COc1ccc(NCc2ccc3c(c2)OCO3)cc1Cl,"inconclusive: 23.9 µM [inhibitor, partial curve]",

SMILES,Potency,"activity change, negative = inhibition"
COc1ccccc1C(=O)C1CCCN(C(=O)Nc2ccccc2F)C1 (configuration not stated),"inconclusive: 21.3 µM [inhibitor, single point]",
COc1cc(C)ccc1OCc1cc(C(=O)N2CCN(C)C[C@@H]2c2ccccc2)no1,"inconclusive: 30.1 µM [inhibitor, single point]",
COCCN(C(=O)COC(=O)c1sccc1C)c1c(N)n(Cc2ccccc2)c(=O)[nH]c1=O,,inactive: 0.628%
COc1cc(C(=O)Nc2cccc(-c3nc4ccccc4o3)c2C)cc(OC)c1OC,"inconclusive: 4.26 µM [inhibitor, partial curve, poor fit]",
Cc1ccc(N2C(=O)CC3(CC4C=CC3C4)C2=O)cc1 (configuration not stated),"inconclusive: 26.9 µM [inhibitor, single point]",
Cc1cccc(C)c1NC(=O)NC1(C(=O)NCC2CCCO2)CCCCC1 (configuration not stated),,inactive: 2.34%
CC(=O)c1ccc(N(C(=O)c2ccco2)C(C(=O)NC2CCCC2)c2cccs2)cc1 (configuration not stated),"inconclusive: 33.8 µM [inhibitor, partial curve, poor fit]",
CCOc1cc(/C=N/N=C2/NC(=O)C(CC(=O)O)S2)ccc1OCc1ccccc1Cl (configuration not stated),"inconclusive: 16.9 µM [inhibitor, partial curve]",
O=[N+]([O-])c1cc(/C=N/N/C(=N/c2ccccn2)c2ccccn2)ccc1O,"inconclusive: 19 µM [inhibitor, single point]",
O=C(NCCc1ccccc1)c1ccc(=O)oc1,,inactive: -0.355%
Nn1c(COc2cccc(Cl)c2)nc2ccccc2c1=O,"inconclusive: 30.1 µM [inhibitor, single point]",
CCC(C)C(NC(=O)c1ccc(Cl)cc1)C(=O)O (configuration not stated),,inactive: 2.9% [at 2.3 µM]
O=C(COc1ccccc1)Nc1nc2ccccc2[nH]1,active: 12 µM,
COc1ccc(-c2nc(-c3cccs3)c(-c3cccs3)[nH]2)cc1O,active: 16.9 µM,
COc1ccc(Cl)cc1C(=O)NCC(c1ccco1)N(C)C (configuration not stated),"inconclusive: 37.9 µM [inhibitor, partial curve, poor fit]",
O=C(CCN1Cc2ccccc2C1)c1ccc2c(c1)OCCO2,"inconclusive: 23.9 µM [inhibitor, partial curve]",
COc1ccccc1/C=C1/SC(=O)N(CCC(=O)Nc2ccc(S(=O)(=O)Nc3nccs3)cc2)C1=O,"inconclusive: 21.3 µM [inhibitor, single point]",
COc1cccc(-c2nc(CS(=O)(=O)CC(=O)Nc3ccc(C)c(Cl)c3)c(C)o2)c1,,inactive: -11.3%
Cc1ccc2c(c1)/C(=C/c1ccco1)C(=O)N2,"inconclusive: 26.9 µM [inhibitor, partial curve, poor fit]",
N#CCCN1CCN(C2=NC(=O)/C(=C\c3cccs3)S2)CC1,"inconclusive: 26.9 µM [inhibitor, partial curve]",
CCc1cccc(C)c1NC(=O)C(NS(=O)(=O)c1ccc2c(c1)CCC(=O)N2)c1ccccc1 (configuration not stated),,inactive: -2.27%
COc1ccc(-n2cc(-c3ccccc3)c3c(N4CCOCC4)ncnc32)cc1,"inconclusive: 37.9 µM [inhibitor, partial curve, poor fit]",
CCN1CCc2c(sc(-n3cccc3)c2C(CCC(C)C)NC(=O)NCCC(=O)OC)C1 (configuration not stated),,inactive: -7.3%
CC(=O)c1ccc(NC(=S)NCc2ccco2)cc1,"inconclusive: 26.9 µM [inhibitor, partial curve, poor fit]",
